Measurements as given in PubChem BioAssay AID651820 (National Center for Advancing Translational Sciences (NCATS), 2012).
About 12,000 (3.5%) of roughly 340,000 compounds were called active. The inconclusive results got no clear call from the source; some entries with a clear call stand among them for comparison. Calls follow the shape of the dose curve; as a rule, active = well fitted inhibition curve with a large enough effect; inconclusive = small, poorly fitted or top-dose-only effect, or another doubt; inactive = no such curve, though single readings can be large or run the other way. Potencies of inconclusive entries are left out as doubtful fits.

experiment: qHTS Assay for Inhibitors of Hepatitis C Virus (HCV); settings: Huh7.5.1 HCVcc-Cre (HCVcc is cell-culture hepatitis C virus) infection, luciferase reporter, 44 h; series mostly up to 41.8 µM
Procedure, shortened: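 Luciferase read-out (15 sec integration) after a 15 min room-temperature substrate step quantifies HCVcc-Cre infection. Cells, 1,000 per well, had compound added 4 h post-plating, then virus at ~0.5 moi, and were cultured 44 h.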
Potency is read from the fitted curve at half-maximal effect; tags tell the direction and shape of the fitted curve.

Row | Compound | Potency
1 | O=C(C1CCN(S(=O)(=O)c2ccccc2)CC1)N1CCc2ccccc21 | inactive
2 | Nc1cccn2c(-c3ccc(Cl)c(Cl)c3)cnc12 | inconclusive [inhibitor, single point]
3 | COCc1ccc(C(=O)NC2CC(C)(C)Cc3c2cnn3-c2ccc(C)cc2)o1 (centres undefined) | inconclusive [inhibitor, partial curve]
4 | COc1ccc(CN(C)C(C)C(=O)Nc2ccc([N+](=O)[O-])cc2Cl)cc1OC (centres undefined) | inconclusive [inhibitor, single point]
5 | O=C1CC(c2ccccc2)CC(=NCCO)/C1=C(\O)CCCN1C(=O)c2ccccc2C1=O (centres undefined) | inconclusive [inhibitor, single point]
6 | CN(C)c1nc(OCCNC(=O)COc2ccccc2Cl)nc(N(C)C)n1 | inconclusive [inhibitor, single point]
7 | C/C(=N\NC(=O)c1ccn[nH]1)c1cn(C)nc1C | inactive
8 | O=C(Nc1ccccc1)c1ccc(S(=O)(=O)N2CCOCC2)cc1 | inactive
9 | CCOC(=O)c1sc(NC(=O)c2ccc(S(=O)(=O)N3CCOCC3)cc2)nc1-c1ccccc1 | inconclusive [inhibitor, single point]
10 | COc1cc(OC)c(C(=O)OC(C)C(=O)Nc2cc(C(F)(F)F)ccc2Cl)cc1OC (centres undefined) | inconclusive [inhibitor, single point]
11 | COc1cc2nc(C3CCC3)nc(N3CCN(c4ccccn4)CC3)c2cc1OC | inconclusive [inhibitor, partial curve]
12 | CCOC(=O)Cn1c2ccc(OC)cc2c2nc3ccccc3nc21 | inconclusive [inhibitor, partial curve]
13 | Cc1ccccc1NC(=O)CCCN1C(=O)C2CC=CCC2C1=O (centres undefined) | inactive
14 | Cc1ccn2c(C(=O)N/N=C\c3cccs3)c(C)nc2c1 | inconclusive [inhibitor, single point]
15 | COc1cc2nc(C3CC3)n(NC(=O)c3ccc(F)cc3)c(=O)c2cc1OC | inconclusive [inhibitor, partial curve]
16 | Cc1nnc(Nc2ccc3c(c2)ncn3C)c2ccccc12 | inconclusive [inhibitor, single point]
17 | O=C1CCCc2c1[nH]c1ccc(Cl)cc21 | inconclusive [inhibitor, full curve, poor fit]
18 | CCOc1ccc2oc(C(=O)NC3CC(C)(C)NC(C)(C)C3)c(C)c2c1 | active: 12.6 µM
19 | CC(=O)Nc1ccc(-c2cn3ccsc3n2)cc1 | inactive
20 | C=CCNCCCOc1ccc(Cl)cc1C(C)(C)C | inconclusive [inhibitor, single point]
21 | CC(=O)c1cccc(NC(=O)Nc2ccc3c(c2)N(C)C(=O)CS3)c1 | active: 3.16 µM
22 | COc1ccc(C(=O)N(C)CCCC2CCCC2)cc1OC1CCN(C(C)=O)CC1 | inconclusive [inhibitor, single point]

Row | Compound | Potency
23 | CCN(C(=O)COC(=O)c1cc(-c2ccccc2)nc2c1c(C)nn2-c1ccc(C)cc1)C1CCS(=O)(=O)C1 (centres undefined) | inconclusive [inhibitor, full curve, poor fit]
24 | CN(CCc1ccccc1)C(=O)c1ccc(NC(=O)Cc2ccc(NC(=O)C3CCCN(C(=O)C4CCC4)C3)cc2)cc1 (centres undefined) | inconclusive [inhibitor, single point]
25 | CC(Sc1ncc(C(F)(F)F)cc1Cl)C(=O)NC(N)=O (centres undefined) | inconclusive [inhibitor, partial curve]
26 | CC1(C)Cc2c(sc3c2c(=N)n(Cc2ccco2)c(=O)n3Cc2ccc(Cl)cc2)CO1 | inconclusive [inhibitor, single point]
27 | CC1CN(c2ccc([N+](=O)[O-])cc2C(=O)N2CCOCC2)CC(C)N1 (centres undefined) | inconclusive [inhibitor, single point]
28 | COc1cc(O)c(C(CCN2CCCCC2)c2cc(OC)c(OC)c(OC)c2)c(OC)c1 (centres undefined) | inconclusive [inhibitor, single point]
29 | CN1CCN(S(=O)(=O)c2cccc3nsnc23)CC1 | inactive
30 | O=C(NC(=O)c1cnccc1C(F)(F)F)Nc1ccccc1 | inactive
31 | Cc1cc(Br)c(S(=O)(=O)NCc2ccncc2)cc1C | active: 3.16 µM
32 | COc1cc(-c2nc3ccc(N4CCN(C)CC4)cc3[nH]2)cc(OC)c1OC | active: 7.94 µM
33 | C=C(C)CNC(=S)N/N=C(\C)c1cccc(NC(C)=O)c1 | inconclusive [inhibitor, partial curve]
34 | C=CCN1C(=O)C(Cc2ccccc2)S/C1=N/N=C/c1cccs1 (centres undefined) | inconclusive [inhibitor, single point]
35 | COCCCNC(=O)c1c(NC(=O)c2ccco2)n(Cc2ccccc2)c2nc3ccccc3nc12 | inactive
36 | COc1ccc(O)c(/C=N/NC(=S)Nc2cccnc2)c1 | inconclusive [inhibitor, single point]
37 | CC1CCCC(C)N1/N=C/c1ccc(Cl)cc1 (centres undefined) | active: 11.2 µM
38 | COc1ccc(-c2sc3cc(OC)c(OC)cc3c2C#CCO)cc1 | active: 1 µM
39 | Cn1c(=O)[nH]c(=O)c2c1nc(N/N=C/c1ccncc1)n2Cc1ccc(Cl)cc1 | inconclusive [inhibitor, single point]
40 | Cc1ccc(C)c(OCC(=O)Nc2ccc3c(c2)OCO3)c1 | inconclusive [inhibitor, partial curve]
41 | COc1ccc(OC)c(NS(=O)(=O)c2ccc(NC(C)=O)cc2)c1 | inconclusive [inhibitor, single point]
42 | CCCOc1ccc2oc(=O)c3c(c2c1)CCCN3C(=O)CN1CCc2ccccc2C1 | inconclusive [inhibitor, partial curve]
43 | CCc1noc(C)c1C(=O)Nc1cccc(S(=O)(=O)N2CCCCCC2)c1 | inconclusive [inhibitor, single point]
44 | COc1ccc(OC)c(NC(=O)COc2ccc(S(=O)(=O)N3CCCC3)cc2)c1 | inconclusive [inhibitor, full curve]
